# Reference: the supplement of paper PMC8728848
# The other results are listed elsewhere or left out.
# Columns and labels:
# Assay in all cases: glycan array binding signal (z-score within array); higher = stronger binding
# Conditions in all cases: glycan notation: IUPAC condensed, linker removed
# [1] = target: Gal3S(b1-3)GalNAc
# Outline: (§1)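 The binding signal is a Z-score computed within each array and averaged over linkers. Arrays of the same protein sequence at different concentrations or buffers were also averaged together. Data originate from 3228 arrays in the Consortium for Functional Glycomics database, kept only where the protein sequence was available.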
# [2] = target: Gal3S(b1-3)GlcNAc
# Outline: as §1
# [3] = target: Gal3S(b1-3)[Fuc(a1-4)]GlcNAc
# Outline: as §1
# [4] = target: Gal3S(b1-4)Glc
# Outline: as §1
# [5] = target: Gal3S(b1-4)Glc6S
# Outline: as §1
# [6] = target: Gal3S(b1-4)GlcNAc
# Outline: as §1
# [7] = target: Gal3S(b1-4)GlcNAc6S
# Outline: as §1
# [8] = target: Gal3S(b1-4)[Fuc(a1-3)]Glc6S
# Outline: as §1
# [9] = target: Gal3S(b1-4)[Fuc(a1-3)]GlcNAc
# Outline: as §1
# [10] = target: Gal3S(b1-4)[Fuc(a1-3)]GlcNAc6S
# Outline: as §1
# [11] = target: Gal3S4S(b1-4)GlcNAc
# Outline: as §1
# [12] = target: Gal3S6S(b1-4)GlcNAc
# Outline: as §1
# [13] = target: Gal3S6S(b1-4)GlcNAc6S
# Outline: as §1
# [14] = target: Gal4S(b1-4)GlcNAc
# Outline: as §1
# [15] = target: Gal4S6S(b1-4)GlcNAc
# Outline: as §1
# [16] = target: Gal6P(b1-4)GlcNAc
# Outline: as §1
# [17] = target: Gal6S(b1-3)GlcNAc
# Outline: as §1
# [18] = target: Gal6S(b1-3)GlcNAc6S
# Outline: as §1
# [19] = target: Gal6S(b1-4)Glc
# Outline: as §1
# [20] = target: Gal6S(b1-4)Glc6S
# Outline: as §1
# [21] = target: Gal6S(b1-4)GlcNAc
# Outline: as §1
# [22] = target: Gal6S(b1-4)GlcNAc6S
# Outline: as §1
# [23] = target: GalNAc(a1-3)Gal
# Outline: as §1
# [24] = target: GalNAc(a1-3)GalNAc
# Outline: as §1
# [25] = target: GalNAc(a1-3)GalNAc(b1-3)Gal(a1-4)Gal(b1-4)Glc
# Outline: as §1
# [26] = target: GalNAc(a1-3)GalNAc(b1-3)Gal(a1-4)Gal(b1-4)GlcNAc
# Outline: as §1
# [27] = target: GalNAc(b1-3)Gal
# Outline: as §1
# [28] = target: GalNAc(b1-3)Gal(a1-4)Gal(b1-4)GlcNAc
# Outline: as §1
# [29] = target: GalNAc(b1-3)Gal(a1-4)Gal(b1-4)GlcNAc(b1-3)Gal(b1-4)Glc
# Outline: as §1
# [30] = target: GalNAc(b1-3)Gal(a1-6)Gal(b1-4)Glc
# Outline: as §1
# [31] = target: GalNAc(b1-3)GalNAc
# Outline: as §1
# [32] = target: GalNAc(b1-3)GlcNAc
# Outline: as §1
# [33] = target: GalNAc(b1-4)Gal(b1-4)Glc
# Outline: as §1
# [34] = target: GalNAc(b1-4)GlcNAc
# Outline: as §1
# [35] = target: GalNAc(b1-4)GlcNAc(b1-2)Man
# Outline: as §1
# [36] = target: GalNAc(b1-4)GlcNAc(b1-2)Man(a1-3)[GalNAc(b1-4)GlcNAc(b1-2)Man(a1-6)]Man(b1-4)GlcNAc(b1-4)GlcNAc
# Outline: as §1
# [37] = target: GalNAc(b1-4)GlcNAc(b1-3)GalNAc(b1-4)GlcNAc
# Outline: as §1
# [38] = target: GalNAc(b1-4)GlcNAc6S
# Outline: as §1
binder,measurement,setting,value
"MGL1 (Mus musculus), P49300 (protein) MIYENLQNSRIEEKTQEPGKAPSQSFLWRILSWTHLLLFSLGLSLLLLVVVSVIGSQNSQLRRDLGTLRATLDNTTSKIKAEFQSLDSRADSFEKGISSLKVDVEDHRQELQAGRDLSQKVTSLESTVEKREQALKTDLSDLTDHVQQLRKDLKALTCQLANLKNNGSEVACCPLHWTEHEGSCYWFSESEKSWPEADKYCRLENSHLVVVNSLEEQNFLQNRLANVVSWIGLTDQNGPWRWVDGTDFEKGFKNWAPLQPDNWFGHGLGGGEDCAHITTGGPWNDDVCQRTFRWICEMKLAKES",glycan array binding signal (z-score),[1],-0.035
same,glycan array binding signal (z-score),[2],-0.163
same,glycan array binding signal (z-score),[3],-0.332
same,glycan array binding signal (z-score),[4],-0.32
same,glycan array binding signal (z-score),[5],-0.2
same,glycan array binding signal (z-score),[6],-0.417
same,glycan array binding signal (z-score),[7],-0.116
same,glycan array binding signal (z-score),[8],1.44
same,glycan array binding signal (z-score),[9],0.62
same,glycan array binding signal (z-score),[10],-0.256
same,glycan array binding signal (z-score),[11],-0.004
same,glycan array binding signal (z-score),[12],-0.223
same,glycan array binding signal (z-score),[13],0.075
same,glycan array binding signal (z-score),[14],0.622
same,glycan array binding signal (z-score),[15],0.176
same,glycan array binding signal (z-score),[16],-1.1
same,glycan array binding signal (z-score),[17],0.178
same,glycan array binding signal (z-score),[18],-0.077
same,glycan array binding signal (z-score),[19],0.208
same,glycan array binding signal (z-score),[20],-0.092
same,glycan array binding signal (z-score),[21],-0.609
same,glycan array binding signal (z-score),[22],-0.187
same,glycan array binding signal (z-score),[23],-0.063
same,glycan array binding signal (z-score),[24],-0.786
same,glycan array binding signal (z-score),[25],-0.481
same,glycan array binding signal (z-score),[26],-0.615
same,glycan array binding signal (z-score),[27],-0.448
same,glycan array binding signal (z-score),[28],0.475
same,glycan array binding signal (z-score),[29],-0.339
same,glycan array binding signal (z-score),[30],-0.397
same,glycan array binding signal (z-score),[31],-0.31
same,glycan array binding signal (z-score),[32],-0.924
same,glycan array binding signal (z-score),[33],-0.519
same,glycan array binding signal (z-score),[34],0.054
same,glycan array binding signal (z-score),[35],-0.244
same,glycan array binding signal (z-score),[36],0.218
same,glycan array binding signal (z-score),[37],-1.05
same,glycan array binding signal (z-score),[38],0.045
